# Screen size: about 39,000 compounds; about 220 (0.56%) showed activity. This is one part of the list.
# Tested on: Escherichia coli K-12 BW25113
# Test: relative growth (OD600 normalised to plate interquartile mean) (fraction); higher = less growth inhibition, active = 0.2 or less
# Details: 50 µM; LB; incubation time: overnight (16-24 h)
# 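Note: static incubation at 37 °C against the wild-type strain, values averaged over two biological replicates.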
row,SMILES,relative growth
1,NCCSSCCN,inactive: 0.955
2,O=C(C[C@H]1C[C@H]2c3cc(NC(=O)Nc4ccccc4F)ccc3O[C@H]2[C@H](CO)O1)NCc1ccc(Oc2ccccc2)cc1,inactive: 1.02
3,C[C@H](O)C#Cc1cnc2c(c1)C(=O)N([C@H](C)CO)C[C@@H](C)[C@H](CN(C)C(=O)CN1CCOCC1)O2,inactive: 1.01
4,C[C@H](CO)N1C[C@H](C)[C@@H](CN(C)Cc2ccc(-c3ccccc3)cc2)Oc2c(NC(=O)Nc3cccc4ccccc34)cccc2C1=O,inactive: 1.02
5,C[C@H](CO)N1C[C@H](C)[C@H](CN(C)Cc2ccc3c(c2)OCO3)OCCCC[C@H](C)Oc2ccc(NC(=O)Nc3ccccc3)cc2C1=O,inactive: 0.993
6,CCC[C@@H](O)C#Cc1cnc2c(c1)C(=O)N([C@H](C)CO)C[C@H](C)[C@H](CN(C)C(=O)Nc1ccc(F)cc1)O2,inactive: 0.965
7,COc1ccc(S(=O)(=O)Nc2ccc3c(c2)CC(=O)N([C@@H](C)CO)C[C@@H](C)[C@H](CN(C)S(=O)(=O)c2cn(C)cn2)O3)cc1,inactive: 0.966
8,C[C@@H]1CN([C@@H](C)CO)C(=O)c2cc(NC(=O)Cc3cn(C)c4ccccc34)ccc2O[C@H]1CN(C)Cc1ccc(Cl)c(Cl)c1,inactive: 1
9,O=C1CO[C@H]2CN(C(=O)COc3ccccc3)C[C@@H]2N1,inactive: 0.99
10,C[C@@H]1CN([C@H](C)CO)C(=O)c2cc(NC(=O)CCC(F)(F)F)ccc2O[C@@H]1CN(C)S(=O)(=O)c1cn(C)cn1,inactive: 0.971
11,Cn1c(=O)n2n(c1=O)[C@H](C1CC1)C=C1CN3[C@@H]([C@H](Cc4ccccc4)OC(=O)[C@@H]3Cc3ccc(N=[N+]=[N-])cc3)[C@@H]12,inactive: 1.01
12,Cc1nc2c(C)cc(N)cn2n1,inactive: 1.01
13,CCCc1c(SCCCOc2ccc(C(C)=O)c(OCCCC(=O)O)c2CCC)ccc(C(C)=O)c1O,inactive: 0.897
14,Cc1ccc(S(=O)(=O)Nc2cccc3c2O[C@H](CN(C)S(=O)(=O)c2cccs2)[C@@H](C)CN([C@H](C)CO)C3=O)cc1,inactive: 0.969
15,C[C@@H]1CCCCO[C@@H](CN(C)S(=O)(=O)c2ccc(Cl)cc2)[C@@H](C)CN([C@H](C)CO)C(=O)c2cc(NC(=O)CCCCCC(=O)Nc3ccccc3N)ccc2O1,inactive: 0.956
16,CCCNC(=O)N(C)C[C@@H]1Oc2cc(C#Cc3ccccn3)ccc2S(=O)(=O)N([C@H](C)CO)C[C@H]1C,inactive: 0.99
17,C[C@@H]1CN([C@@H](C)CO)S(=O)(=O)c2ccc(Br)cc2O[C@H]1CN(C)C(=O)Nc1ccc2c(c1)OCO2,inactive: 1.01
18,NCc1cn2cc(Cl)ccc2n1,inactive: 1.02
19,Cc1noc(C)c1S(=O)(=O)Nc1cccc2c1O[C@H](CN(C)Cc1ccncc1)[C@H](C)CN([C@@H](C)CO)C2=O,inactive: 0.993
20,CC(=O)OC12COC1CC(O)C1(C)C(=O)C(O)C3=C(C)C(OC(=O)C(O)C(NC(=O)OC(C)(C)C)c4ccccc4)CC(O)(C(OC(=O)c4ccccc4)C21)C3(C)C.O.O.O (centres undefined),inactive: 0.722

row,SMILES,relative growth
1,O=C(N[C@H]1CC[C@@H](CCNS(=O)(=O)c2ccccc2)O[C@H]1CO)c1cnccn1,inactive: 1.01
2,C[C@@H]1CN([C@@H](C)CO)S(=O)(=O)c2ccc(C#Cc3ccncc3)cc2O[C@H]1CN(C)C(=O)C1CCC1,inactive: 1
3,CN1C(=O)c2cc(NC(=O)c3cnccn3)ccc2OC[C@H]2O[C@@H](CC(=O)N[C@H]3CCN(Cc4ccccc4)C3)CC[C@@H]21,inactive: 0.998
4,C[C@H]1CN([C@@H](C)CO)C(=O)c2cccc(NC(=O)c3ccc(-c4nccs4)cc3)c2O[C@@H]1CN(C)S(=O)(=O)c1cn(C)cn1,inactive: 0.986
5,C[C@@H]1CCCCO[C@H](CN(C)C(=O)Nc2ccc(C(F)(F)F)cc2)[C@@H](C)CN([C@H](C)CO)C(=O)c2cc(NC(=O)CCCCCC(=O)Nc3ccccc3N)ccc2O1,inactive: 1
6,C[C@H](CO)N1C[C@H](C)[C@@H](CN(C)C(=O)Cc2ccncc2)Oc2cc(C#Cc3ccccc3F)ccc2S1(=O)=O,inactive: 0.999
7,CN[C@H]1CN(c2ccc3c(=O)c(C(=O)O)cn(-c4nccs4)c3n2)C[C@@H]1OC,active: 0.0372
8,CCOCCCNc1nc2c([nH]1)c(=O)n(C)c(=O)n2C,inactive: 1.01
9,COc1ccc(NC(=O)Nc2ccc3c(c2)C(=O)N([C@H](C)CO)C[C@H](C)[C@@H](CN(C)S(=O)(=O)c2ccc(Cl)cc2)OCCCC[C@H](C)O3)cc1,inactive: 1.05
10,COc1ccc(S(=O)(=O)N(C)C[C@@H]2OCCCC[C@H](C)Oc3ccc(NC(=O)C4CCCCC4)cc3C(=O)N([C@H](C)CO)C[C@H]2C)cc1,inactive: 1.03
11,COc1ccc(CNC(=O)C[C@@H]2CC[C@@H]3[C@@H](COc4ccc(NC(=O)C5CC5)cc4C(=O)N3C)O2)cc1,inactive: 1
12,COCC(=O)Nc1ccc2c(c1)[C@@H]1C[C@@H](CC(=O)N3CCOCC3)O[C@@H](CO)[C@@H]1O2,inactive: 1.01
13,COc1cccc(-c2cn(CC[C@@H]3CC[C@@H](NC(=O)CN(C)C)[C@H](CO)O3)nn2)c1,inactive: 1
14,C[C@@H]1CN([C@H](C)CO)C(=O)c2cc(NC(=O)Nc3ccc(F)cc3)ccc2O[C@@H](C)CCCCO[C@@H]1CN(C)Cc1ccncc1,inactive: 0.99
15,COCC(=O)N1C[C@@H](C)[C@H](OC)CN(C)C(=O)c2ccc(NC(=O)Nc3cccc(F)c3)cc2OC[C@@H]1C,inactive: 0.982
16,CN(C(=O)c1ccc(Cl)c(N2C(=O)CCS2(=O)=O)c1)[C@H]1CCS(=O)(=O)C1,inactive: 1.02
17,CCN(CCO)CCCC(C)Nc1ccnc2cc(Cl)ccc12.O=S(=O)(O)O (centres undefined),inactive: 1.18
18,C[C@H](CO)N1C[C@H](C)[C@H](CN(C)S(=O)(=O)c2ccc(F)cc2)Oc2cc(C#Cc3ccncc3)ccc2S1(=O)=O,inactive: 1.03
19,COc1ccc(C(=O)CC(=O)c2ccc(C(C)(C)C)cc2)cc1,inactive: 1.09
